According to the supplement of paper PMC10126150:
Values marked as one replicate rest on one cluster of the flow cell; about a third of the high ones do not repeat.

Test system: ATP
Test: switch fluorescence ratio, 500 uM ATP over buffer (Cy3 cluster intensity, sum of 5 cycles each) (fold (ratio)); higher = stronger signal-on switching upon ATP binding; sequences stand for … in TCGTCGGCAGCGTCAGATGTGTATAAGAGACAGTTTTTTTTTTTTTTTTTTTTTTTTT…TC
Details: aptamer strand: ATP DNA aptamer (quencher-CACCTGGGGGAGTATTGCGGAGGAAGG + anchor), 100 nM annealed; ATP concentration: 500 uM; one replicate
In short: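 Clusters carrying Cy3-labelled switching strands on a modified Illumina MiSeq flow-cell were annealed to 100 nM quencher-labelled ATP aptamer and imaged in selection buffer. They were imaged again after 15 min with 500 uM ATP at 22 °C, over five buffer/ATP cycles with NaOH stripping and re-annealing in between. For each cluster, the fluorescence ratio is the summed Cy3 intensity of the target cycles divided by that of the buffer cycles, averaged per switch-domain sequence. Clusters outside 100-1000 RFU were left out.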
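Note: ATP exposure 15 min at 22 °C before imaging.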

CGGGAACAGC gave a switch fluorescence ratio of 0.986.
CTGTACATAC was tested, and the switch fluorescence ratio was 2.92.
Sequence CCGGTCCAAG has a switch fluorescence ratio of 1.17.
With TTCGAGTCAA the switch fluorescence ratio was 1.51.
Work on GAAACCAGAC yielded a switch fluorescence ratio of 2.93.
In the case of AGTTTGTCAA, the switch fluorescence ratio is reported as 1.04.
For TTCAGGTATT, the switch fluorescence ratio was 1.01.
TACGAGATTC showed a switch fluorescence ratio of 1.07.
With TTTTAAGCG the switch fluorescence ratio was 1.
TTCGTCCATC was tested, and the switch fluorescence ratio was 1.
Work on AGGGATCTAA yielded a switch fluorescence ratio of 1.02.
TATTGATAGT was tested, and the switch fluorescence ratio was 0.996.
CGGTGCCTCG gave a switch fluorescence ratio of 1.01.
TTGTTGGAC was tested, and the switch fluorescence ratio was 1.
Sequence AACGTAATTT has a switch fluorescence ratio of 1.16.
AGTATTATG gave a switch fluorescence ratio of 0.96.
TATGTTCAGT was tested, and the switch fluorescence ratio was 0.996.
Sequence GCGTTATGCC has a switch fluorescence ratio of 1.
In the case of GGTCGTCTTC, the switch fluorescence ratio is reported as 0.999.
In the case of ATTATCCGAG, the switch fluorescence ratio is reported as 1.07.
TGCGATCTTC showed a switch fluorescence ratio of 1.02.
GCACCACATG was tested, and the switch fluorescence ratio was 1.02.
TCGTCAATTA gave a switch fluorescence ratio of 1.05.
Sequence CCATGGAGCA has a switch fluorescence ratio of 1.04.
Sequence CGCGGTGAAT has a switch fluorescence ratio of 1.01.
For ACTGGACGAA, the switch fluorescence ratio was 1.06.
With CCAAGGGTGG the switch fluorescence ratio was 0.994.
In the case of AAGACCTAT, the switch fluorescence ratio is reported as 0.998.
CCCCTGTCTT showed a switch fluorescence ratio of 1.01.
Work on ATTTCAGCCT yielded a switch fluorescence ratio of 1.06.
For GCTTTACTCG, the switch fluorescence ratio was 1.3.
With TACCGGAATT the switch fluorescence ratio was 1.04.
In the case of GATCCCTATG, the switch fluorescence ratio is reported as 0.992.
GTGAAACGAG gave a switch fluorescence ratio of 1.01.
For TTTGGTCGTA, the switch fluorescence ratio was 1.03.
ATGCGACGAA was tested, and the switch fluorescence ratio was 1.02.
With GATACTGCTG the switch fluorescence ratio was 1.05.
For AAACACTCCG, the switch fluorescence ratio was 1.2.
TCATCTGGTT showed a switch fluorescence ratio of 0.959.
With GGAAGCCATG the switch fluorescence ratio was 1.02.
With GCGGTTGGT the switch fluorescence ratio was 1.
In the case of GGGTTCCAAT, the switch fluorescence ratio is reported as 0.998.
Sequence ACCACTAGGT has a switch fluorescence ratio of 1.04.
Sequence AAAGTTGTAT has a switch fluorescence ratio of 1.01.
With TTTAGTCTTC the switch fluorescence ratio was 0.942.
For TATTAGCTTT, the switch fluorescence ratio was 0.963.
Sequence AGTTAGTTG has a switch fluorescence ratio of 0.983.
For AACGAATGGG, the switch fluorescence ratio was 1.01.
For AATACCACAC, the switch fluorescence ratio was 1.21.
AAGACATTTG was tested, and the switch fluorescence ratio was 1.05.
Work on GTAAGGGTGG yielded a switch fluorescence ratio of 0.988.
Work on CGTAGAGAGT yielded a switch fluorescence ratio of 0.935.
ATCATTGG was tested, and the switch fluorescence ratio was 0.99.
With CGCCTAGAAC the switch fluorescence ratio was 1.06.
In the case of TTTCACCCGT, the switch fluorescence ratio is reported as 0.972.
Work on CCCCCGAGCT yielded a switch fluorescence ratio of 1.3.
In the case of AGTAAGCTTT, the switch fluorescence ratio is reported as 0.949.
Sequence AGGGTTGTTT has a switch fluorescence ratio of 0.959.
TACGCAAACC gave a switch fluorescence ratio of 3.6.
AGCCTAAGAC was tested, and the switch fluorescence ratio was 1.2.
GGAGAACGAA was tested, and the switch fluorescence ratio was 0.951.
Work on TCCAGCCTA yielded a switch fluorescence ratio of 1.05.
For TATCCACTCT, the switch fluorescence ratio was 1.02.
In the case of CAACCGTAGA, the switch fluorescence ratio is reported as 1.09.
Sequence GTCCACGATG has a switch fluorescence ratio of 1.02.
For TTAGTCCACC, the switch fluorescence ratio was 1.04.
With GTTTCGGAGC the switch fluorescence ratio was 1.2.
In the case of CACCGGGGGG, the switch fluorescence ratio is reported as 1.04.
ATTGGGGTAG showed a switch fluorescence ratio of 0.962.
Work on CCGATCGGAA yielded a switch fluorescence ratio of 1.13.
GATTTAAGAA gave a switch fluorescence ratio of 1.02.
TGCAACTCGG was tested, and the switch fluorescence ratio was 1.03.
GTAACCCCGA showed a switch fluorescence ratio of 1.06.
For AAGCTTACGC, the switch fluorescence ratio was 1.07.
With TCTAAAATC the switch fluorescence ratio was 1.06.
Work on TTACTTTCTC yielded a switch fluorescence ratio of 1.08.
GATCTTGACC gave a switch fluorescence ratio of 1.03.
Work on CCTTGAGGTA yielded a switch fluorescence ratio of 1.02.
Work on GGGAGAGTAC yielded a switch fluorescence ratio of 0.98.
Work on TGTATTGTGA yielded a switch fluorescence ratio of 0.996.
Work on AGCAGTATGC yielded a switch fluorescence ratio of 1.05.
TATGAGTTCT was tested, and the switch fluorescence ratio was 0.963.
Work on ATCGCGAGGG yielded a switch fluorescence ratio of 1.04.
AGTAGAAGAA gave a switch fluorescence ratio of 1.02.
CCTTTGGGG gave a switch fluorescence ratio of 0.968.
With GTAGGAATCC the switch fluorescence ratio was 1.1.
For TGCGGGAGGT, the switch fluorescence ratio was 1.03.
For TGAATTTCT, the switch fluorescence ratio was 0.998.
GCAACGGAAG showed a switch fluorescence ratio of 1.01.
In the case of CGATTAAAAG, the switch fluorescence ratio is reported as 0.986.
Sequence ACTCATCATG has a switch fluorescence ratio of 1.02.
With ACGTTGTGGT the switch fluorescence ratio was 0.945.
Sequence GTTCGTCCCT has a switch fluorescence ratio of 0.987.
With AATTGGGG the switch fluorescence ratio was 0.99.
Sequence CCGACGGACG has a switch fluorescence ratio of 1.1.
In the case of TCCCGGCGGT, the switch fluorescence ratio is reported as 1.22.
AGTGTAGGTA gave a switch fluorescence ratio of 1.05.
CCTCTGAGGT gave a switch fluorescence ratio of 1.12.
GATAGTA showed a switch fluorescence ratio of 0.988.
Sequence AGAGCCTATG has a switch fluorescence ratio of 1.04.
TCTCGTGCTG was tested, and the switch fluorescence ratio was 0.988.
TCTACTAGTG gave a switch fluorescence ratio of 0.974.
GACTTGGACT gave a switch fluorescence ratio of 1.01.
Work on TCTCAGATGA yielded a switch fluorescence ratio of 1.01.
CGCAATGCGT showed a switch fluorescence ratio of 4.98.
In the case of GAGAACGTTT, the switch fluorescence ratio is reported as 1.03.
Work on GTAAAGGTAC yielded a switch fluorescence ratio of 1.04.
Work on GCAAGAACAT yielded a switch fluorescence ratio of 1.07.
ATTGCTTAGC showed a switch fluorescence ratio of 0.978.
With CCATGCTGCA the switch fluorescence ratio was 1.01.
With GGCATTTGTT the switch fluorescence ratio was 0.93.
For ATAAAATTCA, the switch fluorescence ratio was 1.01.
ACTATATAGT gave a switch fluorescence ratio of 1.03.
AATTAGAGCG was tested, and the switch fluorescence ratio was 1.01.
For TAAGGTTTAA, the switch fluorescence ratio was 0.969.
Work on GCTGATGGGA yielded a switch fluorescence ratio of 0.955.
ATCTGTATTT was tested, and the switch fluorescence ratio was 1.
For CATTATCCC, the switch fluorescence ratio was 0.974.
TTGCGTCAGC gave a switch fluorescence ratio of 0.952.
For AGACGAAGGT, the switch fluorescence ratio was 1.02.
Work on CAGCTTGAGG yielded a switch fluorescence ratio of 0.98.
In the case of ACAAGAAAAG, the switch fluorescence ratio is reported as 1.06.
AGCATAGTCT was tested, and the switch fluorescence ratio was 1.08.
ACTGCGATGG was tested, and the switch fluorescence ratio was 1.33.
In the case of CATTAGTTTG, the switch fluorescence ratio is reported as 0.994.
Work on GGTCGTACTG yielded a switch fluorescence ratio of 0.949.
CTCTCAGACC gave a switch fluorescence ratio of 1.03.
With TACAATGCTC the switch fluorescence ratio was 1.82.
For GGGAGATAAA, the switch fluorescence ratio was 1.01.
CTAGTTTCCT showed a switch fluorescence ratio of 1.01.
Sequence ATCTGCACGA has a switch fluorescence ratio of 1.04.
Sequence AAATTTCGAG has a switch fluorescence ratio of 1.
GTTTGGGAT showed a switch fluorescence ratio of 1.02.
Sequence TAATTTTTGA has a switch fluorescence ratio of 0.994.
TTTAAGGCTA showed a switch fluorescence ratio of 0.944.
Sequence CAATGGGGAT has a switch fluorescence ratio of 0.956.
TATTTCTCTC gave a switch fluorescence ratio of 1.05.
ACAGTAGAGG gave a switch fluorescence ratio of 1.09.
CTATGTCTGT showed a switch fluorescence ratio of 0.989.
In the case of GCTAGACATC, the switch fluorescence ratio is reported as 1.01.
GCTTAGAGAG gave a switch fluorescence ratio of 0.998.
Work on TGAGTACTT yielded a switch fluorescence ratio of 1.03.
Sequence ATAGAGTTGC has a switch fluorescence ratio of 0.974.
With TTACATGGCG the switch fluorescence ratio was 1.02.
For AGTGATTCTC, the switch fluorescence ratio was 1.01.
Work on CCATCTGGTC yielded a switch fluorescence ratio of 1.04.
With CTCATCGTAT the switch fluorescence ratio was 0.965.
For GAGGTTTCG, the switch fluorescence ratio was 0.953.
Work on CCGGTCTTAT yielded a switch fluorescence ratio of 1.03.
Sequence GTAAGAGGCA has a switch fluorescence ratio of 0.964.
GACGTTGAT showed a switch fluorescence ratio of 0.986.
Work on TCAGCGTTTT yielded a switch fluorescence ratio of 0.977.
Sequence ATCAAGCCA has a switch fluorescence ratio of 1.05.
For GCGGCAAGGT, the switch fluorescence ratio was 1.04.
For ATACTCACGT, the switch fluorescence ratio was 1.26.
ACAAAATGGG was tested, and the switch fluorescence ratio was 1.01.
Sequence GAAAATCGGC has a switch fluorescence ratio of 1.
Sequence TTCGTCTAT has a switch fluorescence ratio of 1.01.
For TGGAGCAAAT, the switch fluorescence ratio was 5.
In the case of GAGGAAGGTG, the switch fluorescence ratio is reported as 1.42.
With GCGGGACATT the switch fluorescence ratio was 1.05.
CCACGTGTCC was tested, and the switch fluorescence ratio was 1.
ACTTGAGCGA showed a switch fluorescence ratio of 1.02.
AGATTAACAA was tested, and the switch fluorescence ratio was 1.01.
TTCATAGTGG showed a switch fluorescence ratio of 0.991.
Work on CAAACGGTCA yielded a switch fluorescence ratio of 0.985.
GAATGGAATT was tested, and the switch fluorescence ratio was 0.982.
For TCCCGGAGCG, the switch fluorescence ratio was 1.91.
AGACTGACTA was tested, and the switch fluorescence ratio was 1.11.
CCAAATTTTG gave a switch fluorescence ratio of 0.971.
CTGAATCTC gave a switch fluorescence ratio of 1.03.
GAGAATATTT was tested, and the switch fluorescence ratio was 1.01.
Work on ACGTGCGGCG yielded a switch fluorescence ratio of 0.928.
ATACAAAATA gave a switch fluorescence ratio of 1.03.
Sequence AAGGGTAGCA has a switch fluorescence ratio of 1.04.
TTGCAAACAC showed a switch fluorescence ratio of 1.47.
Sequence CCCATTGGCC has a switch fluorescence ratio of 1.05.
Work on CGGTTCATTG yielded a switch fluorescence ratio of 1.01.
CGGAGCGCAG showed a switch fluorescence ratio of 1.09.
Work on CGTTGCATG yielded a switch fluorescence ratio of 0.897.
With GAACGCAGCG the switch fluorescence ratio was 0.997.
TAAATTACGG gave a switch fluorescence ratio of 1.14.
Work on AGCGAGGGAT yielded a switch fluorescence ratio of 1.01.
For TCGCGTTCTT, the switch fluorescence ratio was 0.993.
ACTGAATAAC showed a switch fluorescence ratio of 1.01.
TAAAGATGCC gave a switch fluorescence ratio of 1.07.
AAGGCTAGAG was tested, and the switch fluorescence ratio was 1.
GCTGGTTTCT gave a switch fluorescence ratio of 1.03.
Sequence GTTGGCCTGT has a switch fluorescence ratio of 0.975.
CGTAAGGATT gave a switch fluorescence ratio of 0.975.
For TAGCGTCCCT, the switch fluorescence ratio was 1.04.
CAATTCACCT was tested, and the switch fluorescence ratio was 1.2.
In the case of GATCTGGTGC, the switch fluorescence ratio is reported as 1.
GCTACAGCT gave a switch fluorescence ratio of 1.01.
GGAATGTGAG was tested, and the switch fluorescence ratio was 0.994.
GCCGATTGAA was tested, and the switch fluorescence ratio was 0.993.
Work on CTACACTATT yielded a switch fluorescence ratio of 1.04.
Work on ACGTGGGACC yielded a switch fluorescence ratio of 0.976.
ATTCTGGCAG was tested, and the switch fluorescence ratio was 1.02.
Work on ACATCTTGGT yielded a switch fluorescence ratio of 1.02.
For AGAGAGGTGC, the switch fluorescence ratio was 1.1.
